In this test the target is T1, IL-2/IL-15 receptor on HH cells (human).
T1 chain 1: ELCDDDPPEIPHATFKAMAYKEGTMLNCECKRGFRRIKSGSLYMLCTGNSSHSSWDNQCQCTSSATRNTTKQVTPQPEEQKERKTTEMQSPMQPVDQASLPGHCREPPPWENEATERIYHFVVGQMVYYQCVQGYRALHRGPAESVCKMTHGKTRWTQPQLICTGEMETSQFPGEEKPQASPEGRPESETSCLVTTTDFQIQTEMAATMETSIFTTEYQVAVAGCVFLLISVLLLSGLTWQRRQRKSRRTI
T1 chain 2: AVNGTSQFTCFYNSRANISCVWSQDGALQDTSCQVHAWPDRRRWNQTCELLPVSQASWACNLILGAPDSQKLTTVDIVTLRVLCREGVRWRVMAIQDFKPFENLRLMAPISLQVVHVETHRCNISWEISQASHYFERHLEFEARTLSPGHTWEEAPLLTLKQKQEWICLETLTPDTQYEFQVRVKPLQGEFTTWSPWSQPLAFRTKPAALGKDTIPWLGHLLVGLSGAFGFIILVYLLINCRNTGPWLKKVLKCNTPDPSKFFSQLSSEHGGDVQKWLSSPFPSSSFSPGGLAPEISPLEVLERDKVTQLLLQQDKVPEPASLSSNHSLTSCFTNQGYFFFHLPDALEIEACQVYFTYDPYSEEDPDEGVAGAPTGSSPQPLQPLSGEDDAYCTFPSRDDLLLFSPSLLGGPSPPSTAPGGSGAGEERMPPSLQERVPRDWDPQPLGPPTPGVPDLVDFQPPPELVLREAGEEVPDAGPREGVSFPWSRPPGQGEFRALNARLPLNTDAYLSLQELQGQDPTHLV
T1 chain 3: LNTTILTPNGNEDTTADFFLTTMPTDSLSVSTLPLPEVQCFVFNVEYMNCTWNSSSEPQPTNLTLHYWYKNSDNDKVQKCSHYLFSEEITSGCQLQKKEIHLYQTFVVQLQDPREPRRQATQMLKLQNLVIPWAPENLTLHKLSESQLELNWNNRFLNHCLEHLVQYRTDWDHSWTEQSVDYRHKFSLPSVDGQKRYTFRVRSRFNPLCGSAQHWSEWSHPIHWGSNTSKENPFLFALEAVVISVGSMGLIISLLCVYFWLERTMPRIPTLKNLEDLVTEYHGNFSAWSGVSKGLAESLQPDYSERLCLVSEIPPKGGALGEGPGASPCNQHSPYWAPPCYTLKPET
Kind of test: cell-based or functional assay.

B1: Human uPA-ATF:Fc:hIL-15Ra:cpIL-15 (Fc fusion)
chain: SNELHQVPSNCDCLNGGTCVSNKYFSNIHWCNCPKKFGGQHCEIDKSKTCYEGNGHFYRGKASTDTMGRPCLPWNSATVLQQTYHAHRSDALQLGLGKHNYCRNPDNRRRPWCYVQVGLKPLVQECMVHDCAGGSGG[omitted - human IgG1 Fc with C220S (EU numbers)]GSITCPPPMSVEHADIWVKSYSLYSRERYICNSGFKRKAGTSSLTECVLNKATNVAHWTTPSLKCIRDGGSELEEKNIKEFLQSFVHIVQMFINGGGSNWVNVISDLKKIEDLIQSMHIDATLYTESDVHPSCKVTAMKCFLLELQVISLESGDASIHDTVENLIILANNSLSSNGNVTESGCKEC
As for B1, the “pSTAT5 EC50, HH cells” value is 99 pM.

Source of the values: patent publication US20220340678A1 (MURAL ONCOLOGY, published 2022).
